The values that follow come from patent US6348470B1, “Antitussive compositions” (priority 1997, dated 2002).

Data set [1] has as its system 15% citric acid spray induced cough. The data set is described as follows: citric acid spray-induced cough model, acute antitussive activity, single oral treatment. The note with it: for decrease of cough number: 1 hour before second citric acid insult; for ED50: Cavia porcellus, po, 1 h, read-out: calculated ED50 (antitussive); for dose at which the antitussive effect was already significant: single oral treatment, 1 hour.

Data set [2] has as its system citric acid spray-induced cough. Conditions: literature, guinea pig; cited from earlier work.
In another data set the test system is rats. The data set is described as follows: acute oral toxicity in rats. Conditions: for antitussive therapeutic index (LD50/ED50): rat oral LD50 / guinea pig antitussive ED50.
For data set [3] the following is noted: cited from earlier work; for plasma half-life (t1/2): human plasma.
Data set [4] concerns 15% citric acid spray induced cough. In words: habit formation study, repeated administration for 14 days, citric acid cough model. In kind it is in vivo, guinea pig. The note with it: 1 hour after treatment. The protocol:
Some experiments have been carried out for habit formation studies. The aim of these experiments was to check whether the antitussive activity of theobromine remained constant after repeated (chronic) administration of the drug. The same method was adapted as described above. […] The antitussive effect was tested on Day1-Day7-Day14. The cough number was counted just before and 1 hour after the treatment on the indicated days. The control group (n=12) underwent the same protocol as the theobromine treated group (n=13).

Data set [5] has the same test system. The data set is described as follows: time-dependency of the antitussive effect, citric acid cough model. The data set is classed as in vivo, guinea pig. The note with it: 32 mg/kg p.o., FIG. 2. On the procedure: It was justified by further experiments that the excellent antitussive effect of theobromine exists for several hours. The time-dependency of the antitussive effect of 32 mg/kg p.o. administered theobromine on Hartley guinea pigs was determined as specified in the 1 hour acute experiments.

A further data set relates to mucociliary clearance. The data set is described as follows: mucociliary clearance of respiratory airways (99mTc-labelled red blood cells, gamma-camera). Conditions: 8 mg/kg intravenously, 30 min before inhalation, p<0.05. The data set is classed as in vivo, rabbits. The source says:
Patients with bronchitis are among those who most frequently use antitussive drugs. […] Wagner, U., et al., Eur.J.Pharmacol., 1996, 298:265). […] To investigate the effect of theobromine of mucociliary clearance activity the method of […]-Tuckerman was adapted ([…]., et al., Lung, 1992, 170:201). Bromhexine-HCl, a known secretolytic agent was used as reference substance. This model involves the administration of ^99mTechnecium-labelled homologues red blood cell suspension by inhalation. Theobromine and the reference agent bromhexine were administered intravenously 30 min before the inhalation of the labelled red blood cells. After the last inhalation of the nebulized cell suspension, the radioactivity was measured with a gamma-camera over the closed chest for a period of 60 min. The time-activity curves were generated and fitted to the measured points. The mucociliary clearance value was given as the amount of radioactive marker in percent elimination in unit of time (hour) The increase in mucociliary clearance value indicated quantitatively if the mucociliary activity has been enhanced by the previous drug treatment.

Where [6] appears, read: 64 mg/kg oral, adjusted to control.

Take `Cn1c(=O)[nH]c(=O)c2[nH]cnc21` [3-methylxanthine]: in data set [1] (according to our experiments, at higher doses the dose-activity curve breaks down), the antitussive effect result was “some antitussive effect in a narrow dose range”.

In the case of `Cn1c(=O)c2[nH]cnc2n(C)c1=O.NCCN` [Aminophylline, theophylline ethylenediamine], in data set [2], the antitussive activity result is reported as “practically ineffective”.

In the case of `Cn1c(=O)c2c(ncn2C)n(C)c1=O` [caffeine], the figures for the “decrease of cough number” value in data set [1] (32 mg/kg oral) and in data set [1] (setting [6]) were 17.5±3.7% and 48.4±3.1%, respectively. In addition, the antitussive effect entry in data set [1] (dose-range of 2-16 mg/kg oral) is listed as “no antitussive effect”.

A word on the ED50: it is the dose at which the effect has come halfway, by size or by number of responders. With `COc1ccc2c3c1O[C@H]1[C@@H](O)C=C[C@H]4[C@@H](C2)N(C)CC[C@@]341` [codeine, reference compound], the “decrease of cough number” value in data set [1] (setting [6]) worked out at 54.2±5.7%. For the same compound, in data set [1], the ED50 is 49 mg/kg and the “dose at which the antitussive effect was already significant” value stood at 8 mg/kg. Also, the “antitussive therapeutic index (LD50/ED50)” value in the data set on rats was determined as 8.7. Also, the “plasma half-life (t1/2)” value in data set [3] is 2 to 4 h.

With `Cn1cnc2c1c(=O)[nH]c(=O)n2C` [theobromine, 3,7-dihydro-3,7-dimethyl-1H-purine-2,6-dione], the “antitussive effect adjusted to control values” in data set [4] (Day1, 32 mg/kg oral once a day) came out at 46.1±2.3%; in data set [4] (Day7, 32 mg/kg oral once a day), 54.1±3.4%; in data set [4] (printed Day4 (third test day), 32 mg/kg oral once a day), 49.0±4.9%. Besides, in data set [1] (setting [6]), the “decrease of cough number” value came out at 69.0±1.9%. Moreover, the median effective dose (ED50) in data set [1] is 37 mg/kg. Besides, the “dose at which the antitussive effect was already significant” value in data set [1] is 4 mg/kg. In addition, the “duration of antitussive activity” value in data set [5] was “long-lasting antitussive activity”. Further, in the data set with rats (LD50/ED50 of theobromine vs codeine), the “antitussive therapeutic index relative to that of codeine” value is recorded as “roughly 4 times”. Also, the “antitussive therapeutic index (LD50/ED50)” value in the data set with rats turned out to be 34. Besides, the “increase in mucociliary clearance” value with mucociliary clearance came out at 60%. Further, the “plasma half-life (t1/2)” value in data set [3] was 6.1 to 10 h. The “effect of repeated dosing on metabolism and clearance of theobromine” value in data set [3] (men, 6 mg/kg/day in the form of dark chocolate for one week) is “altered neither the metabolism of theobromine nor its clearance”.

`Cn1c(=O)c2[nH]cnc2n(C)c1=O` [theophylline]: the antitussive activity result in data set [2] is reported as “weak antitussive activity”.
